In all, about 33,000 sequences were measured (“E-score (-0.5 to 0.5)”: median about -0.041, highest 2% from about 0.37 on). The list shows a part of the results.
The sequences below were run against T1, Ecm22 (UniProt Q05958) (assay: PBM E-score (8-mer binding enrichment) (E-score (-0.5 to 0.5)); higher = stronger / more preferred TF binding; most listed sequences are background and not binding sites). Conditions: protein concentration: 200 nM; construct: GST-full length.
T1 sequence: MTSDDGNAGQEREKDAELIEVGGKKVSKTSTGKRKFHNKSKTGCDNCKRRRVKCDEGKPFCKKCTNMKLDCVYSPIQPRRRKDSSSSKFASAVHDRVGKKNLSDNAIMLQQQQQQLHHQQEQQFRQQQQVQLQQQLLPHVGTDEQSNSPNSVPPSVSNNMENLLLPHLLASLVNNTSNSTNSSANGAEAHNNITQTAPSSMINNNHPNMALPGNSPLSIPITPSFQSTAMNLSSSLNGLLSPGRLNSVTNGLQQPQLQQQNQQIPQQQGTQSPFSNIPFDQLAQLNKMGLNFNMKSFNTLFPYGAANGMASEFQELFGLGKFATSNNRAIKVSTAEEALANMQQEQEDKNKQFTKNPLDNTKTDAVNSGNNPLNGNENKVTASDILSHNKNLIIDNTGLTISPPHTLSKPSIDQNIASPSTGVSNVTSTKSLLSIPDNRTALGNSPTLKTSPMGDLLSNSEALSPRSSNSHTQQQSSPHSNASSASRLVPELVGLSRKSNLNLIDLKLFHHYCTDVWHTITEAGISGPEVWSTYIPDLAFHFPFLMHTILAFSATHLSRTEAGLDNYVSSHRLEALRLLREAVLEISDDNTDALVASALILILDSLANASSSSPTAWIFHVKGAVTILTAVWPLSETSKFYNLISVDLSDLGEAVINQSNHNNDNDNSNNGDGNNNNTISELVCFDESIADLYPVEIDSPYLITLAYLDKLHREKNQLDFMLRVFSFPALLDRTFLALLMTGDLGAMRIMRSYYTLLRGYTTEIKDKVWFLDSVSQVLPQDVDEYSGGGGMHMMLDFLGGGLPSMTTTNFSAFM
Description: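 Universal 'all 10-mer' protein binding microarrays (Agilent AMADID 015681) probed with GST-tagged S. cerevisiae TFs (full-length or DBD) made by in vitro transcription/translation (PURExpress), about 100-200 nM. Bound TF was detected with fluorescent anti-GST. Each ungapped 8-mer (which stands for itself and its reverse complement) is scored by the PBM enrichment score (E-score), a modified Wilcoxon-Mann-Whitney statistic from -0.5 to +0.5, computed with the Universal PBM Analysis Suite. Scale: above 0.35 generally sequence-specific binding.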

**Q.** How did the “PBM E-score” value turn out when CGGAACCG was run?
**A.** 0.21

**Q.** Which “PBM E-score” value does the source give for CGTAACCA here?
**A.** 0.149

**Q.** For CCTTCCCC, which “PBM E-score” value is on record?
**A.** -0.0759

**Q.** ACACCAGA was tested. Which “PBM E-score” value did it give?
**A.** -0.0212

**Q.** CCAAGGGC was tested. Which “PBM E-score” value did it give?
**A.** -0.28

**Q.** Which “PBM E-score” value does the source give for AAACGTTA here?
**A.** 0.18

**Q.** Which “PBM E-score” value does the source give for AATGGGAT here?
**A.** -0.207

**Q.** Which “PBM E-score” value does the source give for CACGAGAG here?
**A.** 0.0712

**Q.** GACCTGAA was tested. Which “PBM E-score” value did it give?
**A.** -0.172

**Q.** CTAATCTC was tested. Which “PBM E-score” value did it give?
**A.** 0.127

**Q.** How did the “PBM E-score” value turn out when TCAGCTAA was run?
**A.** 0.0187

**Q.** How did the “PBM E-score” value turn out when CGCATGTC was run?
**A.** 0.065

**Q.** Which “PBM E-score” value does the source give for GATACATA here?
**A.** 0.107

**Q.** How did the “PBM E-score” value turn out when AAAGTGGG was run?
**A.** 0.0233

**Q.** Which “PBM E-score” value does the source give for AATTATAT here?
**A.** 0.263

**Q.** How did the “PBM E-score” value turn out when CGCGCGAG was run?
**A.** 0.157

**Q.** How did the “PBM E-score” value turn out when AGAACAAA was run?
**A.** 0.0892

**Q.** For CAGCTAGC, which “PBM E-score” value is on record?
**A.** -0.182

**Q.** CGATCTCC was tested. Which “PBM E-score” value did it give?
**A.** 0.0257

**Q.** Which “PBM E-score” value does the source give for TTTAGAAA here?
**A.** 0.0255

**Q.** With CGGTTTAC as the sequence, how does the “PBM E-score” value read?
**A.** 0.239

**Q.** GCTCTATA was tested. Which “PBM E-score” value did it give?
**A.** -0.109

**Q.** Which “PBM E-score” value does the source give for AGTCCTGA here?
**A.** -0.298

**Q.** With AATGGACT as the sequence, how does the “PBM E-score” value read?
**A.** -0.109

**Q.** CTGACTGA was tested. Which “PBM E-score” value did it give?
**A.** -0.189

**Q.** How did the “PBM E-score” value turn out when ACCTCGAC was run?
**A.** -0.0677

**Q.** CTAGGGTA was tested. Which “PBM E-score” value did it give?
**A.** -0.252

**Q.** How did the “PBM E-score” value turn out when GTTCCAAA was run?
**A.** 0.147

**Q.** With ATTCTATC as the sequence, how does the “PBM E-score” value read?
**A.** -0.0465

**Q.** AGGACACC was tested. Which “PBM E-score” value did it give?
**A.** -0.0391

**Q.** AATAGCAG was tested. Which “PBM E-score” value did it give?
**A.** -0.266

**Q.** How did the “PBM E-score” value turn out when AATCGGTG was run?
**A.** -0.0662

**Q.** How did the “PBM E-score” value turn out when GATCATGC was run?
**A.** -0.205

**Q.** AGGTGGGA was tested. Which “PBM E-score” value did it give?
**A.** -0.121

**Q.** For AATAAACA, which “PBM E-score” value is on record?
**A.** 0.0258

**Q.** How did the “PBM E-score” value turn out when GGCATATA was run?
**A.** 0.216

**Q.** How did the “PBM E-score” value turn out when ACCGCTGA was run?
**A.** 0.141

**Q.** With CCAAACGC as the sequence, how does the “PBM E-score” value read?
**A.** 0.177

**Q.** With TGGGTAAA as the sequence, how does the “PBM E-score” value read?
**A.** 0.0399

**Q.** AATGGGAG was tested. Which “PBM E-score” value did it give?
**A.** -0.153

**Q.** How did the “PBM E-score” value turn out when ACGTTGTG was run?
**A.** -0.026

**Q.** How did the “PBM E-score” value turn out when CGGCGACA was run?
**A.** -0.0728

**Q.** For ACGTCTCC, which “PBM E-score” value is on record?
**A.** 0.0834

**Q.** With GAGAAATC as the sequence, how does the “PBM E-score” value read?
**A.** 0.147

**Q.** With GACTCCGA as the sequence, how does the “PBM E-score” value read?
**A.** -0.237

**Q.** For GCCGACAA, which “PBM E-score” value is on record?
**A.** 0.0252

**Q.** Which “PBM E-score” value does the source give for ATCTTTGA here?
**A.** -0.00074

**Q.** How did the “PBM E-score” value turn out when AAGACTAG was run?
**A.** -0.209

**Q.** With GTCTTGAA as the sequence, how does the “PBM E-score” value read?
**A.** 0.0447

**Q.** How did the “PBM E-score” value turn out when CTTCAGCA was run?
**A.** -0.0761

**Q.** Which “PBM E-score” value does the source give for AAGCCCGT here?
**A.** 0.138

**Q.** Which “PBM E-score” value does the source give for TAAAAACA here?
**A.** 0.00419

**Q.** Which “PBM E-score” value does the source give for GCACAGCC here?
**A.** -0.0877

**Q.** With ACCCGATG as the sequence, how does the “PBM E-score” value read?
**A.** 0.059

**Q.** With ACACCAAA as the sequence, how does the “PBM E-score” value read?
**A.** 0.0554

**Q.** How did the “PBM E-score” value turn out when GCACGTGC was run?
**A.** -0.0189

**Q.** With GCTGGAAC as the sequence, how does the “PBM E-score” value read?
**A.** 0.0629

**Q.** CGGATTCC was tested. Which “PBM E-score” value did it give?
**A.** 0.102

**Q.** AGGTAACC was tested. Which “PBM E-score” value did it give?
**A.** 0.11

**Q.** For CAGAGGTC, which “PBM E-score” value is on record?
**A.** -0.235

**Q.** Which “PBM E-score” value does the source give for GAGGGCGA here?
**A.** -0.28

**Q.** How did the “PBM E-score” value turn out when CTGATTCC was run?
**A.** -0.298

**Q.** With AAGCACGA as the sequence, how does the “PBM E-score” value read?
**A.** 0.104

**Q.** For CACGCCAC, which “PBM E-score” value is on record?
**A.** -0.186

**Q.** With CGTCACGC as the sequence, how does the “PBM E-score” value read?
**A.** 0.0511

**Q.** AAAACAAA was tested. Which “PBM E-score” value did it give?
**A.** 0.09

**Q.** For GCATTTAC, which “PBM E-score” value is on record?
**A.** -0.0379

**Q.** How did the “PBM E-score” value turn out when AATAGTTG was run?
**A.** -0.116

**Q.** Which “PBM E-score” value does the source give for CCCGATCC here?
**A.** -0.106

**Q.** Which “PBM E-score” value does the source give for AGTTGCCC here?
**A.** -0.165

**Q.** Which “PBM E-score” value does the source give for AGCCCACC here?
**A.** -0.23

**Q.** For GGGAAAAA, which “PBM E-score” value is on record?
**A.** -0.0103

**Q.** How did the “PBM E-score” value turn out when ACATTGAT was run?
**A.** 0.0861

**Q.** With CGAGGAGA as the sequence, how does the “PBM E-score” value read?
**A.** 0.0825

**Q.** Which “PBM E-score” value does the source give for ATCTGTGC here?
**A.** -0.189

**Q.** Which “PBM E-score” value does the source give for ACAGCGCG here?
**A.** -0.00963

**Q.** AAGGCAAG was tested. Which “PBM E-score” value did it give?
**A.** -0.235

**Q.** How did the “PBM E-score” value turn out when AGGAAGTC was run?
**A.** -0.32

**Q.** Which “PBM E-score” value does the source give for AAGTCAGT here?
**A.** -0.0263

**Q.** For AGTAGATA, which “PBM E-score” value is on record?
**A.** 0.152

**Q.** For GCCCGACC, which “PBM E-score” value is on record?
**A.** -0.268

**Q.** Which “PBM E-score” value does the source give for AGTAATGA here?
**A.** -0.0982

**Q.** With CGCGCCTC as the sequence, how does the “PBM E-score” value read?
**A.** 0.00638

**Q.** How did the “PBM E-score” value turn out when AAATGGCG was run?
**A.** -0.0122

**Q.** Which “PBM E-score” value does the source give for CTGGATCA here?
**A.** -0.195

**Q.** Which “PBM E-score” value does the source give for CCTACGTA here?
**A.** 0.218
